Test results published in the RNAGym collection of RNA variant scans (doi:10.7554/elife.90254).
Read counts are not given, so values of variants with three or more changes are uncertain.

B1: OR4K15 (parent)
chain: GUUAACGGUCAUAGGCCAUGGAAACUAGGAGCACCAUUUCGCUGCCAGUGAAGAAAUGAACAAAGAAAAUCUGGGCCAGGCAGGCAUCAAAAGAAAUAGUCUUGCGCUCAACCAGAAAGUCUGUAAUCAUUUUAAGGGUA

Variants of: B1
Assay: self-cleavage, relative activity (ratio to wild type); higher = more cleavage; in vitro, sequencing; the parent is a self-cleaving ribozyme

Variant	self-cleavage
A67G U72A G83U U87C U132A A140G	0.13
A82C A86G U103C C113A A118G	0.01
U103C A111G A140G	0
U49C U100G U127A	2.03
A33G A55G U102A	0.39
C17U A51U A140U	1.08
A52G A59U A63G A89G	0.48
A78G A82C A117U	0.08
C16U A63G A117G	1.8
A54G A129C U130C	0.63
A13G A18G U57C A135G	1.33
A51U A60G U122G	1.97
A66G A78G U100C	0.29
A18U A23G A60G	0.89
A52G A118G U120C	0.27
A5G A33G A67C U103C U127C	0.81
U87A U132G A140U	2.62
U43C A62G A98G U127C	0.15
A47G C101U A135G	0.21
A30G A96G A126C	0.58
A54G A63G U130C	0.84
A54G U122C U131C	1.25
U49G A66G U139C	0.69
U9C A47U A118G U122C	0.17

Variant	self-cleavage
G7A G83U U124A	0.35
A55G A66G U72A A78G	0.19
U19C G58U A114G A116G U132C	0.05
U9C A18G A24G A91G	0.75
C16U U38C G79A A126G U131A	0.16
A60C A117G U131C	2.09
U72A A117G A126G	0.25
U43C A59U U130A	1.41
A13G A23G A62G U131C	0.19
A47C U103C U139C	1.53
U19C G28A G53A	0.94
A33C C42A A60G	0.35
A4G U103A A116G	0.4
U9C A22U A96G	0.79
U12C A54G A63G	0.47
G15A A23U A30G A91C	1.25
U9C A23G A126G	0.85
A5G A52U A68G A96G A118G A125G	0.16
A59G A126G A140U	1.3
A5U A18G U43A A91G	1.22
A33U G74A A140G	0.28
A67G A125U U131G	1.6
A23G A36G A114G	0.63
A51G A59G A67G G79A	0.16

Variant	self-cleavage
A56G A94G A118G	1.17
A60U A63G U131C	1.48
A33G A52G A86G A89U U103C	0.1
A82G A89U U120A	0.19
A63G A68G A78U U139C	0.4
A13G A62G U70C A140G	0.7
A11G U43C A62G	1.31
A11G A59G U108C A111G A140G	0.03
U37C A60U G80U	0.16
A18G U39C G41A A90G	0.48
A11G A33G U39C	0.53
A22G A23G A63G	0.4
A54G G58A A59G	1.31
A51U A56G A67G	1.02
C42A A64G A86U A116G A126G	0.25
A11U A23G A96U	0.86
A11G A55G A111G	0.05
A36G A54G A64U A90G	0.55
A68U A94G A111G A117G A118G U122A	0.02
U2C A54G A95G A111G	0.04
U2C U9C A22G A67G A68G U70C A135G	0.91
U37C U87C A134G	1.26
G58U A91G A95G	1.14
U19C A66G A116G	0.15

Variant	self-cleavage
A22U U26C C76A C77U A82G	0.15
U43C A94G A110G	0.19
A66U A91G A140G	0.84
A24G A30U U124C	0.74
A30G A51U A64G	0.97
U38C A116G U127A	0.98
A52G A59G A63G A68G U87A A92G	1.87
A56G A89G A91G	1.51
U9C A24G U108C	0.06
A33G U57C A66G	1.37
A54G A60G U103A	0.14
U2C U26C U57C A111U	0.03
A36G U102C A111G	0.03
A30G A36C A54G A63G	0.66
A52G U57C A59U A67G U120A	1.19
A5G A54G U131C	1.6
A64G U122C U132C	2.26
A5G A55U U72A	0.48
U19C U39C A55G	1.43
A22G A27G A62G	1.48
A52G A55G A125G	0.27
A24G C61U U108A A126G	0.04
A4G U26C U108C	0.05
G41C U57C A78G C113U	0.03

Variant	self-cleavage
U49C U72C A78G	0.34
A18G A23U A30U A47U A140G	1.14
A56G A78G A90G	0.55
U19A U43C A52G A55G	0.35
G14A U39C U43G U97G U131A	1.58
U102C A117G U139G	2.69
U19C A47G A63G C112G	0
A4G A22G U127C	0.62
C32G A51G U72C	0.17
U3C A5G U9C A33U A129G	0.74
A54G A90G U102C A111G	0
A51G A90G A118G	0.34
A18G U57A U103A A116G	0.22
U43C G44A U57A	1.23
U9C G84A A116G	1.18
A5G G20A A82U	0.11
U37C C46U A60G U108C	0.01
A27G A95G A98G A118G U122C U139C	1.55
A52G U57C A64G A111G	0.02
A68G A78U A114U U124G	0.01
A13G A27G A30G A92G U102A A134G	0.89
A5C A22G A82G	0.54
A5G A24G U37C A78G A82G	0.71
A52G A118G U122C	1.03

Variant	self-cleavage
A24G A56G A66G A111U	0.11
U38A U97C U139G	1.36
A56G U122C A129U U132G G136U	1.18
U9C A30G A66G U72C A96G	0.57
U49C A111G U133C	0.01
A13U A56G A114G A118G	0.15
G29U A47U A92G A96G	0.81
A11G A36G A51G A62U A94G	1.39
U97C U102C U124C	1.25
A67G U87C A89G	1.7
A66U A78G A117U	0.12
A22U A64G A117U	1.05
A36U G74A A95G	0.23
U9C A51G A117G U130C	1.64
A30G A52G A63G	1.25
A59G A67U A111U	0.28
A13U A98G U130C	0.31
A90G A92U A98U	1.18
A96U U97C A98U	0.23
U39A A62G A89U	1.84
U2A C81U A129U	0.25
U38C A78G U87A U130C	0.07
U38C A68G A94G G99A A125G	0.16
A54G A111G G137U	0.02

Variant	self-cleavage
A33G A51G U124C	0.26
A5G U9C A33G	1.52
A5G A78G A111G	0.16
A66G U122A A126U	1.06
U26C G50U A60G	1.07
U12C C45U A56G U72A	0.4
U12C A52C A110U A111G U132C	0.02
A96G A117G A126G	2.09
A18U U38C A59G	1.38
A23G A69G U87C U120A	1.09
U9C A52U A66G A111U A129G	0.08
A59G U70C A82U A90G A111G	0.01
U26C A30G A114G	0.8
G14A U39A U102C A140U	1.23
U3C U37C A54G A60G	2
A23G A95G U103A	0.82
A69G A82G A89U A116U	0.06
U26C A69G U103C A126G	0.47
A33U A59G U124C	0.54
A24U A110G U120C	0.07
A5G U132G G138A	0.65
A23G A52G G53A A89G U100C U124A	1.37
A47G A78G U102C	0.22
